# Data taken from PubChem BioAssay AID881 (National Center for Advancing Translational Sciences (NCATS), 2007).
# In all, about 110,000 compounds went through this assay and about 610 (0.55%) were called active. Inconclusive means that the source gave no clear call. Such entries were picked first, then a sample of the others. Calls follow the shape of the dose curve; as a rule, active = well fitted inhibition curve with a large enough effect; inconclusive = small, poorly fitted or top-dose-only effect; inactive = no such curve, though single readings can be large or run the other way. A potency beside an inconclusive call is a rough fit, not a confirmed value.
# Target: Polyunsaturated fatty acid lipoxygenase ALOX15B (Homo sapiens) (UniProt O15296)
# Chain of UniProt O15296 (O15296 whole entry, looked up): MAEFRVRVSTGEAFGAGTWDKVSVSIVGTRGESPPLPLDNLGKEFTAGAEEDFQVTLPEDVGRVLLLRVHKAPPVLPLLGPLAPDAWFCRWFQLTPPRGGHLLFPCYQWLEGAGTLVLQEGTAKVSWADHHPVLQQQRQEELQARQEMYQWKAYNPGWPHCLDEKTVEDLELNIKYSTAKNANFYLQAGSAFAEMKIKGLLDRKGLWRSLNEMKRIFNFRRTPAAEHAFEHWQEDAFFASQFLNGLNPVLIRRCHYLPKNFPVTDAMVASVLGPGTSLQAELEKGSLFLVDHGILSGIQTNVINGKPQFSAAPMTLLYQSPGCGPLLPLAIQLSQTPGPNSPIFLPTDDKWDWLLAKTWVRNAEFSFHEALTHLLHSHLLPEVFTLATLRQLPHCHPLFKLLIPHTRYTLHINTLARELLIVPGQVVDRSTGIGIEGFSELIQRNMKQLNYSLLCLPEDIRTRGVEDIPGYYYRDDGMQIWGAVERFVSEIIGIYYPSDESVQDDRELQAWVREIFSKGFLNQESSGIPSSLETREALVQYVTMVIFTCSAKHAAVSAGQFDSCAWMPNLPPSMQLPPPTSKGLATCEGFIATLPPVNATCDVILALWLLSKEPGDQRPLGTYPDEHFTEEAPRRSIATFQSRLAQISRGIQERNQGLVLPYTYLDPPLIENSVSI
# Assay: qHTS Assay for Inhibitors of 15-hLO-2 (15-human lipoxygenase 2); also: nearly all actives have a fitted effect of over 60% in size
# Conditions: purified 15hLO-2, xylenol orange hydroperoxide absorbance; activity change, negative = inhibition: at 57.1 µM (top of the series) unless noted
# Method in brief: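 Screening format was qHTS against 50 nM purified 15hLO-2 in Hepes pH 7.5 with detergent. Activity follows hydroperoxide formation from 45 uM arachidonic acid, measured as 573:405 nm absorbance ratio of the ferric-xylenol orange complex.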
# % is scaled to controls: 0 for no effect and ±100 for the full control effect; potency is read from the fitted curve at half-maximal effect; tags tell the direction and shape of the fitted curve.
SMILES,Potency,"activity change, negative = inhibition"
CC(C)c1c(O)ccc2c1CCC1[C@@](C)(CO)CCC[C@@]21C (stereo partly specified),"inconclusive: 15.8 µM [inhibitor, partial curve]",
O=C(O)C1C2C=CC(O2)C1C(=O)Nc1ccc(S(=O)(=O)N2CCc3ccccc32)cc1 (stereo unspecified),"inconclusive: 3.98 µM [inhibitor, full curve]",
N#Cc1c(Cl)nc(SCc2ccccc2)nc1-c1ccccc1,"inconclusive: 15.8 µM [inhibitor, partial curve, poor fit]",
O=C(c1cc(-c2ccco2)nn1-c1cccc(Cl)c1)N1CCCCC1,,inconclusive: -46.4% [inhibitor] [at 11.4 µM]
COc1cccc(-c2cc3c(=O)n(-c4ccccc4)c(=S)[nH]c3s2)c1,"inconclusive: 12.6 µM [inhibitor, partial curve]",
Cc1ccc(C(=O)Oc2csc(=S)n2C(=O)c2ccc(C)cc2)cc1,"inconclusive: 12.6 µM [inhibitor, partial curve]",
CC(/C=N/n1c(COc2ccccc2)n[nH]c1=S)=C\c1ccccc1,"inconclusive: 6.31 µM [inhibitor, partial curve]",
Oc1ccc(Cc2cc(Cl)cc(Cl)c2O)cc1Cl,,inactive: -18.3% [at 11.4 µM]
O=C(NNC(=O)c1ccc(SCC2CCCO2)c([N+](=O)[O-])c1)c1ccc(Cl)c([N+](=O)[O-])c1 (stereo unspecified),"inconclusive: 25.1 µM [inhibitor, single point]",
Nc1c(C(=O)Nc2ccc(Br)cc2)sc2nc(-c3ccco3)ccc12,"inconclusive: 5.01 µM [inhibitor, partial curve]",
COCC(=O)Nc1ccc(Nc2ccccc2)cc1,"inconclusive: 39.8 µM [inhibitor, single point]",
Cc1[nH]n(-c2ccccc2)c(=O)c1-c1ccc(Cl)cc1,"inconclusive: 1.58 µM [inhibitor, full curve, poor fit]",
OCc1ccccc1N=c1ssnc1Cl,"inconclusive: 25.1 µM [inhibitor, partial curve]",
COc1ccccc1-c1cc(NCc2cnc(C)cn2)ncn1,"inconclusive: 39.8 µM [inhibitor, single point]",
O=C(Nc1cccs1)Nc1ccccc1Cl,"inconclusive: 31.6 µM [inhibitor, single point]",
O=C(c1ccc2ncsc2c1)N1CCN(c2ccc(O)cc2)CC1,"inconclusive: 12.6 µM [inhibitor, partial curve]",
COC(=O)c1ccccc1NC1CC(=O)N(c2c(C)cccc2C)C1=O (stereo unspecified),"inconclusive: 3.16 µM [inhibitor, full curve, poor fit]",
COc1cc(C2Nc3cccc4cccc(c34)N2)cc(OC)c1OC(C)=O,"inconclusive: 3.98 µM [inhibitor, full curve]",
COCCn1c(Cc2ccccc2)nnc1SCC(=O)N1CCCCC1C (stereo unspecified),,inactive: 1.27%
O=C1C(C2=C(O)c3ccccc3C2=O)=Nc2ccccc21,"inconclusive: 12.6 µM [inhibitor, partial curve]",
Cc1cc(O)c(C(C)C)cc1C1(c2cc(C(C)C)c(O)cc2C)OC(=O)c2ccccc21,"inconclusive: 3.16 µM [inhibitor, partial curve]",

SMILES,Potency,"activity change, negative = inhibition"
CS(=O)(=O)N(CC(=O)N1CCCCCC1)Cc1ccc(Cl)cc1,,inactive: -7.32%
CC(=O)N1CCN(c2ccc(NCc3ccccc3)cc2)CC1,"inconclusive: 15.8 µM [inhibitor, partial curve]",
Oc1cccc(C=NCc2ccccc2)c1O,"inconclusive: 20 µM [inhibitor, partial curve]",
CC1=C([N+](=O)[O-])C(c2ccccc2)C2=C(N1)c1ccccc1C2=O (stereo unspecified),"inconclusive: 15.8 µM [inhibitor, partial curve]",
Cc1cccc2cc3c(NC(=O)CC(C)C)nn(C)c3nc12,"inconclusive: 2 µM [inhibitor, partial curve]",
O=c1cnnc(SCCc2ccccc2)[nH]1,,inactive: 5.68% [at 11.4 µM]
Cc1cc(O)c(C(C)C)cc1Cl,,inactive: -8.17% [at 0.0915 µM]
CC(C)CNc1cc(N2CCCC2)ccc1[N+](=O)[O-],"inconclusive: 20 µM [inhibitor, partial curve]",
O=S1(=O)c2ccccc2N=NN1Cc1cc(Cl)cc(Cl)c1,"inconclusive: 5.01 µM [inhibitor, partial curve]",
O=C(Nc1nc2ccc(Cl)cc2s1)C1CCCO1 (stereo unspecified),"inconclusive: 10 µM [inhibitor, partial curve]",
O=C(Nc1ccc(S(=O)(=O)N2CCCC2)cc1)N1c2ccccc2Sc2ccccc21,"inconclusive: 1.58 µM [inhibitor, partial curve]",
COC(=O)C1=C(C(=O)OC)SC2(S1)C(C(=O)OC)=C(C(=O)OC)SC1=C2c2cc(C)ccc2NC1(C)C,"inconclusive: 12.6 µM [inhibitor, partial curve]",
COc1ccccc1OCC(=O)Sc1ccc(C)cc1,"inconclusive: 20 µM [inhibitor, partial curve]",
O=C(CSc1ccc2nnc(-c3ccncc3)n2n1)Nc1ccc2c(c1)OCO2,"inconclusive: 39.8 µM [inhibitor, single point]",
O=C(O)/C=C\c1c2ccc(=O)c(O)c-2oc2c(O)c(O)ccc12,"inconclusive: 7.94 µM [inhibitor, single point]",
CCOC(=O)C1=C(N)n2c(s/c(=C\c3ccco3)c2=O)=C(C(=O)OCC)C1c1ccco1 (stereo unspecified),"inconclusive: 12.6 µM [inhibitor, partial curve]",
CCn1c(CSc2nc3ccccc3s2)nnc1SCC(=O)c1ccc(O)c(O)c1,"inconclusive: 20 µM [inhibitor, partial curve]",
O=C(CSc1nc(Nc2ccccc2)nc(N2CCOCC2)n1)N1CCc2ccccc21,,inactive: 33.4%
Cc1ccc(N2C(=O)CC(Sc3ncn[nH]3)C2=O)cc1C (stereo unspecified),"inconclusive: 0.631 µM [inhibitor, full curve, poor fit]",
O=c1c(O)c(-c2ccc3c(c2)OCO3)oc2ccccc12,"inconclusive: 3.16 µM [inhibitor, full curve]",
